Test results: ChEMBL document CHEMBL4888484, “Replenishing the malaria drug discovery pipeline: Screening and hit evaluation of the MMV Hit Generation Library 1 (HGL1) against asexual blood stage Plasmodium falciparum ,using a nano luciferase reporter read-out” (2022)
Among all 150,000 compounds or so, about 540 (0.36%) showed an effect of 50% or more. Some of the results follow.

Tested on: Plasmodium falciparum
Assay: Primary screen in NF54 nanoGlo assay, in single point, at 2uM, 72h; a lower Z score goes with more inhibition
Type: functional, Erythrocyte
Conditions: timepoint 72 hour

SMILES	% Inhibition	Z score	% Inhibition (2 µM)
CN(C[C@H]1CCN(C)C1(C)C)C(=O)C(=O)CCc1ccccc1	-1%	0.1	–
COc1ccc(C2CN(C(=O)CC(C)(C)C)CC2C(=O)N2CCCC2)cc1 (stereo unspecified)	3%	-0.37	–
C[C@@H](CC(C)(C)O)NCCOc1ccccc1Cl	-7%	0.82	–
C[C@H]1CCCCCN1C(=O)C1=CCCCO1	8%	-0.73	–
O=C(Cn1cnc2c(c1=O)COCC2)c1ccccc1OC(F)F	-5%	0.55	–
Cc1ccc2oc(N3C[C@@H]4OC(=O)N(C5CCN(C(C)C)CC5)[C@@H]4C3)nc2c1	6%	-1.11	–
COc1ncc(Cl)c(N2CCC(c3nc(C)no3)CC2)n1	2%	-0.44	–
O=C(Nc1ccccc1)N(CCc1ccncc1)C1CCCCC1	-11%	1.76	–
C[C@H](Oc1ccccc1)C(=O)N1CCn2nc(Cc3ccccc3)cc2C1	-3%	0.39	–
CNc1nc(N2CCC3(CCC(=O)N(C[C@H]4CCCO4)C3)CC2)ncc1F	-5%	0.63	–
COc1ccc(C)cc1Nc1cc(C(=O)N2CCC(C)CC2)nc2ccc(F)cc12	-5%	0.58	–
CC(C)[C@H](CNC(=O)c1cn[nH]c1C(F)(F)F)c1ccccc1	-13%	1.48	–
O=C(Cc1ccccc1Cl)N1CC[C@H](Oc2ccc3ccccc3n2)C1	-5%	0.96	–
C[C@H](NC(=O)Nc1ccc2c(c1)OCCO2)c1nccc(N)n1	-9%	1.34	–
Brc1ccc(C2=NNC(c3ccccc3)=Nc3cccnc32)cc1	4%	-0.54	–
Cc1ocnc1C(=O)N1CCCCC[C@@H]1CC(=O)c1ccccc1	-10%	1.53	–
O=C(NC[C@@H]1COc2ccccc2C1)c1cn[nH]c1C(F)(F)F	-7%	0.76	–
O=C1C[C@@H]2CCN(C(=O)c3ccccc3)C[C@@H]2CCOc2ncccc2N1	4%	-0.67	–
CC1CCCCC1NCCN1CCCCC1 (stereo unspecified)	-9%	1.21	–
Cc1ccc(C)c2c(C)c(C(=O)NC3(CO)CCCCC3)[nH]c12	-8%	1.05	–
Cn1cc(Cn2nnc3c(cnn3-c3ccccc3)c2=O)cn1	-5%	0.84	–
O=C(NCc1ccc[nH]1)C1CCCC(F)C1 (stereo unspecified)	3%	-0.62	–

SMILES	% Inhibition	Z score	% Inhibition (2 µM)
CCn1cc(Cc2nc(-c3ccc(=O)n(C)c3)no2)cn1	-19%	2.06	–
COc1ccc(CN2CC[C@H](O)CC(C)(C)C2)nn1	-2%	0.27	–
Cc1noc([C@@H]2CN(C(=O)NC3CCCCC3)CCCN2C(=O)c2ccccc2)n1	-6%	1.14	–
O=S(=O)(CCC1CCC1)NC1CCOC1c1ccc(Cl)cc1 (stereo unspecified)	-8%	1.38	–
CCC[N+](CC#Cc1ccccc1)(CCC)CC(=O)c1ccc(Cl)cc1	-9%	1.44	–
CCO[C@@H](C)c1ccc(-c2ccc(O)c(-c3ccno3)c2)cc1	-7%	0.82	–
CCN1CCC[C@@H]1CNCc1ccc2c(c1)OCCO2	–	–	-6%
CC1(C)NC(=O)N(CC(=O)NC(Cc2ccccn2)[C@H]2C[C@@H](O)C2)C1=O (stereo partly specified)	-7%	1.22	–
Cc1ccc(-c2noc(-c3ccccc3S(=O)(=O)N(C)c3ccc(C)cc3)n2)cc1	-5%	0.58	–
Cc1nnc2ccc(-c3noc([C@@H]4CCC(C)(C)O4)n3)cn12	-1%	0.24	–
O=C(N[C@H]1CCCc2occc21)c1ccco1	32%	-0.61	–
CCS(=O)(=O)N[C@@H](C)C(=O)N1CCCCC1	-15%	1.98	–
O=C(NCCn1ccnc1)C(=O)Nc1cccc2nonc12	-7%	1.2	–
Cc1ccc(-n2c(=O)c3c(cnn3C)n(Cc3ccccc3Cl)c2=O)cc1	8%	-0.8	–
CC(C)c1cccc(CC(=O)NC[C@@H]2CCC[C@H]2O)c1	-10%	1.27	–
O=C(CN1CCOCC1)N1C[C@@H]2CC[C@H]1CN(CCCc1ccccc1)C2	-6%	0.89	–
CC[C@H]1C=CCN1C(=O)c1ccn2nnnc2c1	-18%	1.72	–
C[C@H]1OCCN(C(=O)c2csc(-c3ccc(F)c(F)c3)n2)[C@@H]1C(N)=O	-1%	0.14	–
Cc1nn(CCC(N)=O)c(C)c1/C=C/C(C)(C)C	-1%	0.27	–
c1ncc(CNCc2ccc3c(n2)CCCC3)s1	-11%	2.08	–
O=C(CCC(=O)N1CCc2ccccc2C1)c1ccc2c(c1)OCCCO2	-4%	0.45	–
C[C@H](NC(=O)C1(C)COC1)c1csnn1	3%	-0.33	–

SMILES	% Inhibition	Z score	% Inhibition (2 µM)
Cc1ccc(CNC(=O)N2CCC(C)(c3noc(C)n3)CC2)cc1	8%	-0.98	–
CC(C)C1OCCC1CNc1ncnc2nc[nH]c12 (stereo unspecified)	-3%	0.26	–
CC1CN(C(=O)NCC(C)c2c(Cl)cccc2Cl)CC2(CCOC2)O1 (stereo unspecified)	1%	-0.14	–
c1ccn2cc(CN3CCC[C@H](Cn4cncn4)C3)nc2c1	-13%	1.79	–
Cc1ccc(S(=O)(=O)Nc2[nH]nnc2C(=O)N2CCCC2)c(C)c1	-13%	1.71	–
Cc1ccc(CCC(=O)N2CCC2)cc1	-9%	1.04	–
Cn1ccnc1[C@H]1N(Cc2ccc(C(N)=O)cc2)CC1(C)C	-7%	1.23	–
Nc1cc(N2CCC3(CC2)CC(=O)N(Cc2ccc(F)c(F)c2)C3)ncn1	3%	-0.36	–
COC(=O)c1ccc(N2CCC3CCCCC32)nn1 (stereo unspecified)	2%	-0.33	–
CCC(C)C(C)(O)CNc1ccc(S(C)(=O)=O)cc1 (stereo unspecified)	-6%	0.76	–
CC[C@H](O)CCNS(=O)(=O)N1CCC(C(C)(C)C)CC1	-14%	2.07	–
Cc1cnc(C[C@H]2CCCN(C(=O)NC(C)(C)C)C2)n1CC1CC1	4%	-0.66	–
CC(C)CN1CCC[C@H]1c1nc(-c2ccc(F)cn2)no1	-9%	1.11	–
Cc1ccc(CNc2nc3c(C)cccc3cc2-c2noc(-c3ccccc3)n2)o1	-3%	0.35	–
CCC1CCC(C(=O)NC2CCN(C(N)=O)C2)O1 (stereo unspecified)	-8%	1.22	–
COCC(=O)N(Cc1ccccc1OS(=O)(=O)c1cccc(C(F)(F)F)c1)C[C@H]1CCCO1	-4%	0.71	–
CO[C@@H](CNC(=O)c1ccccc1Cl)c1cc2ccccc2o1	-3%	0.51	–
COc1ccc(C(=O)N2[C@H](C(=O)NCc3ccncc3)COC23CCN(C(=O)CC(C)C)CC3)cc1	-8%	1	–
O=C(C1COCCO1)N1CCCC1c1ccc(Br)cc1 (stereo unspecified)	-16%	1.48	–
CCc1nnnn1Cc1nnc(-c2ccc(F)cc2)o1	5%	-0.87	–
CN(C)c1ccc(-c2cnc3ncnn3c2)cn1	-6%	0.97	–
CN1CCN(C(=O)c2coc(CN(Cc3ccc4c(c3)OCO4)Cc3ccccc3Cl)n2)CC1	2%	-0.25	–

SMILES	% Inhibition	Z score	% Inhibition (2 µM)
Cc1nc2c3ccccc3nc(N3CCC([C@]4(C)NC(=O)NC4=O)CC3)n2n1	-8%	1.32	–
COc1ccc(-c2c(-c3ccccc3)ncn2Cc2ccon2)c(C)c1	-11%	1.52	–
COC(=O)c1ccc(C)c(NC(=O)CCOCC(F)F)c1O	3%	-0.25	–
Fc1cccc([C@H]2C[C@H](Nc3cnccn3)C2)c1	-3%	0.43	–
Cc1ccc([C@H](C)NCCN2CCCC2=O)o1	-8%	1.06	–
Cc1noc(C)c1C(=O)N1CCC[C@H](Oc2ncc(Cl)cn2)C1	-3%	0.45	–
COCc1ncsc1C(=O)NC(C)(C)c1nc(C)cs1	0%	-0.02	–
Cc1nnc(C(C)NC2CCC[C@H]3C[C@@H]23)[nH]1 (stereo partly specified)	-14%	1.41	–
CC(C)(C#N)NS(=O)(=O)c1cc(Cl)c(N)c(Cl)c1	-1%	0.12	–
O=C1CNC2(CCN(S(=O)(=O)c3ccc(Cl)cc3)CC2)N1Cc1cccc(C(F)(F)F)c1	-10%	0.93	–
CN(C)Cc1cc(CN[C@H](c2ccccc2)C2(CO)CCCC2)no1	-10%	1	–
Cc1ccccc1-n1c(=O)n(Cc2ccccc2)c(=O)c2c1ncn2CC(=O)c1ccc(Cl)cc1	8%	-0.72	–
CCc1nccn1C[C@H](C)N1CC(Oc2ccc(C)cc2)C1	-10%	1.17	–
O=S(=O)(c1ccc(Cl)cc1)c1cnc2ccccc2c1N1CCN(Cc2ccccc2)CC1	-4%	0.45	–
Cc1cccc2c(-c3nc(N(C)C)n(C)n3)c[nH]c12	6%	-0.79	–
Cc1ccc2cc(CN3C[C@H](O)[C@@H](F)C3)c(N3CCOCC3)nc2c1	-6%	0.82	–
CS(=O)(=O)C[C@H]1CCCCN1C(=O)c1cn2cccnc2n1	-11%	1.12	–
C[C@@H]1C[C@@H](NC(=O)C2(C#N)CC23CCCC3)c2ccccc2O1 (stereo partly specified)	19%	-2.39	–
CCN(c1ccc2sc(C(=O)NC)cc2c1)S(=O)(=O)c1ccc(OC)cc1	-6%	0.74	–
C[C@@H](CNC(=O)N1CCC2(CCOCC2)C1)N(C)Cc1ccccc1	0%	-0.05	–
